From the supplement of paper PMC4967469
IC50 is the fitted dose that halves viability relative to control wells, and lower means more sensitive; a fit beyond the top or the lowest dose is shown as a bound at that dose. For AUC the same curve is integrated over the 256-fold range of doses and scaled to a fraction; values near 1 show little effect. For some of these results: An inferred top dose is not printed in the source and was worked back from the curve model. For some of these results: Drugs with an entry number were screened twice under separate entries, and the two screens often disagree.

Tests used:
Test in all cases: Viability of human cancer cell lines after 72 h of drug (GDSC screen)
Tamoxifen = compound: CC/C(=C(\c1ccccc1)c1ccc(OCCN(C)C)cc1)c1ccccc1 [Tamoxifen]; details: top dose 5 µM
Experimental: (§1)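 Human cancer cell lines in 384-well plates, medium with 10% serum, drug for 72 h over a 256-fold dose range (nine 2-fold or five 4-fold steps up to the top dose). Adherent lines were fixed and stained with the nucleic acid dye Syto60, suspension lines read with resazurin; signal relative to control wells, capped at 0 and 100%. One two-parameter sigmoid per drug and line, fitted in a mixed model over all curves with the slope shared within a line.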

VNLG/124 = compound: CCCC(=O)OCc1ccc(OC(=O)/C=C(C)/C=C/C=C(C)/C=C/C2=C(C)CCCC2(C)C)cc1 [VNLG/124]; details: top dose 5.12 µM; top dose inferred
Experimental: as §1

LAQ824 = compound: O=C(/C=C/c1ccc(CN(CCO)CCc2c[nH]c3ccccc23)cc1)NO [LAQ824]; details: top dose 1.024 µM; top dose inferred
Experimental: as §1

Masitinib = compound: Cc1ccc(NC(=O)c2ccc(CN3CCN(C)CC3)cc2)cc1Nc1nc(-c2cccnc2)cs1 [Masitinib]; details: top dose 20 µM
Experimental: as §1

OSI-930 = compound: O=C(Nc1ccc(OC(F)(F)F)cc1)c1sccc1NCc1ccnc2ccccc12 [OSI-930]; details: top dose 10.24 µM
Experimental: as §1

Bleomycin = compound: Cc1c(N)nc([C@H](CC(N)=O)NC[C@H](N)C(N)=O)nc1C(=O)N[C@H](C(=O)N[C@H](C)[C@@H](O)[C@H](C)C(=O)N[C@H](C(=O)NCCc1nc(-c2nc(C(=O)NCCC[S+](C)C)cs2)cs1)[C@@H](C)O)[C@@H](OC1OC(CO)C(O)C(O)C1OC1OC(CO)C(O)C(OC(N)=O)C1O)c1cnc[nH]1 [Bleomycin]
Experimental: as §1

BX-912 = compound: O=C(Nc1cccc(Nc2ncc(Br)c(NCCc3cnc[nH]3)n2)c1)N1CCCC1 [BX-912]; details: top dose 10.24 µM; top dose inferred
Experimental: as §1

NSC-87877 = compound: O=S(=O)(O)c1ccc2cc(N=Nc3cc(S(=O)(=O)O)c4cccnc4c3O)ccc2c1 [NSC-87877]; details: top dose 16 µM; top dose inferred
Experimental: as §1

Elesclomol = compound: CN(NC(=O)CC(=O)NN(C)C(=S)c1ccccc1)C(=S)c1ccccc1 [Elesclomol]; details: top dose 0.2 µM; top dose inferred
Experimental: as §1

[1] = top dose 50 µM, screen: GDSC drug entry 1378, top dose inferred
[2] = top dose 64 µM, screen: GDSC drug entry 190

Row | Cell Line | AUC (Tamoxifen) | IC50 (Tamoxifen) | AUC (VNLG/124) | IC50 (VNLG/124) | AUC (LAQ824) | IC50 (LAQ824) | AUC (Masitinib) | IC50 (Masitinib) | AUC (OSI-930) | IC50 (OSI-930) | AUC (Bleomycin; [1]) | IC50 (Bleomycin; [1]) | AUC (Bleomycin; [2]) | IC50 (Bleomycin; [2]) | AUC (BX-912) | IC50 (BX-912) | AUC (NSC-87877) | IC50 (NSC-87877) | AUC (Elesclomol) | IC50 (Elesclomol)
1 | VM-CUB-1 (bladder, adherent) | 0.984 | > 5 µM | 0.987 | > 5.12 µM | 0.585 | 0.109 µM | 0.968 | > 20 µM | 0.983 | > 10.2 µM | 0.137 | 0.239 µM | 0.518 | 4.46 µM | 0.989 | > 10.2 µM | 0.988 | > 16 µM |  | 
2 | HT-144 (melanoma, adherent) | 0.97 | > 5 µM | 0.981 | > 5.12 µM | 0.266 | 0.0126 µM | 0.862 | > 20 µM | 0.975 | > 10.2 µM | 0.452 | 2.27 µM | 0.141 | 0.251 µM | 0.984 | > 10.2 µM | 0.984 | > 16 µM |  | 
3 | BCPAP (thyroid, adherent) | 0.988 | > 5 µM | 0.986 | > 5.12 µM | 0.383 | 0.0315 µM | 0.873 | 16.1 µM | 0.956 | > 10.2 µM | 0.399 | 1.69 µM | 0.356 | 1.67 µM | 0.866 | 7.72 µM | 0.989 | > 16 µM |  | 
4 | GAMG (glioma, adherent) | 0.98 | > 5 µM | 0.981 | > 5.12 µM | 0.402 | 0.0339 µM | 0.899 | > 20 µM | 0.884 | > 10.2 µM | 0.347 | 1.15 µM | 0.173 | 0.385 µM | 0.755 | 3.62 µM | 0.985 | > 16 µM |  | 
5 | HEL (acute myeloid leukaemia, semi-adherent) | 0.989 | > 5 µM | 0.938 | > 5.12 µM | 0.219 | 0.0117 µM | 0.859 | 12.3 µM | 0.91 | 10.2 µM | 0.834 | 25.3 µM | 0.675 | 11.2 µM | 0.934 | > 10.2 µM | 0.98 | > 16 µM |  | 
6 | NUGC-3 (stomach, adherent) | 0.982 | > 5 µM | 0.98 | > 5.12 µM | 0.449 | 0.0456 µM | 0.976 | > 20 µM | 0.974 | > 10.2 µM | 0.333 | 1.01 µM | 0.359 | 1.55 µM | 0.96 | > 10.2 µM |  |  |  | 
7 | SW1116 (large intestine, adherent) | 0.984 | > 5 µM | 0.982 | > 5.12 µM |  |  | 0.986 | > 20 µM | 0.985 | > 10.2 µM | 0.898 | > 50 µM |  |  | 0.981 | > 10.2 µM |  |  |  | 
8 | KOSC-2 (head and neck, adherent) | 0.982 | > 5 µM | 0.98 | > 5.12 µM | 0.462 | 0.0502 µM | 0.98 | > 20 µM | 0.985 | > 10.2 µM | 0.287 | 0.757 µM | 0.909 | > 64 µM |  |  | 0.984 | > 16 µM |  | 
9 | NCI-H1650 (lung adenocarcinoma, adherent) | 0.967 | > 5 µM |  |  |  |  |  |  |  |  | 0.687 | 12.4 µM |  |  |  |  |  |  |  | 
10 | MCF7 (breast, adherent) |  |  | 0.983 | > 5.12 µM | 0.349 | 0.0239 µM | 0.973 | > 20 µM | 0.92 | > 10.2 µM | 0.654 | 8.48 µM | 0.327 | 1.29 µM | 0.986 | > 10.2 µM | 0.977 | > 16 µM | 0.561 | 0.0184 µM
11 | NCI-H3122 (lung adenocarcinoma, adherent) |  |  | 0.986 | > 5.12 µM | 0.424 | 0.0394 µM | 0.926 | > 20 µM | 0.944 | > 10.2 µM | 0.678 | 9.97 µM | 0.36 | 1.63 µM | 0.97 | > 10.2 µM | 0.97 | > 16 µM | 0.665 | 0.0366 µM
12 | HDQ-P1 (breast, adherent) |  |  | 0.939 | > 5.12 µM | 0.715 | 0.296 µM | 0.969 | > 20 µM | 0.925 | > 10.2 µM | 0.784 | 25.8 µM | 0.82 | 46.3 µM | 0.961 | > 10.2 µM | 0.985 | > 16 µM | 0.943 | > 0.2 µM
13 | SNU-1040 (large intestine, adherent) | 0.973 | > 5 µM | 0.956 | > 5.12 µM |  |  | 0.868 | > 20 µM | 0.979 | > 10.2 µM | 0.974 | > 50 µM |  |  | 0.907 | > 10.2 µM |  |  |  | 
14 | GCIY (stomach, adherent) |  |  | 0.979 | > 5.12 µM | 0.404 | 0.0337 µM | 0.869 | > 20 µM | 0.97 | > 10.2 µM |  |  | 0.632 | 9.75 µM | 0.973 | > 10.2 µM | 0.98 | > 16 µM | 0.906 | > 0.2 µM
15 | BB30-HNC (head and neck, adherent) |  |  | 0.983 | > 5.12 µM | 0.417 | 0.038 µM | 0.884 | > 20 µM | 0.959 | > 10.2 µM | 0.068 | < 0.195 µM | 0.051 | < 0.25 µM | 0.872 | 9.43 µM | 0.979 | > 16 µM | 0.428 | 0.00796 µM
16 | U251 (glioma, adherent) |  |  | 0.985 | > 5.12 µM | 0.568 | 0.097 µM | 0.853 | 14.5 µM | 0.933 | > 10.2 µM | 0.22 | 0.498 µM | 0.512 | 4.31 µM | 0.805 | 4.87 µM | 0.986 | > 16 µM | 0.47 | 0.0104 µM
